Measured values from the antibiotic and cytotoxicity screens of Wong et al. (2023).
The other results are listed elsewhere or left out.

Tests used:
HSkMC = human skeletal muscle cells; test: cytotoxicity call (relative viability < 0.9); conditions: 10 µM
HepG2 = test: cytotoxicity call (relative viability < 0.9); conditions: 10 µM
S. aureus RN4220 = test: growth inhibition call (relative growth <= 0.2); conditions: 50 µM

COc1cc2c(cc1OC)CN(CCc1ccc(-n3nnc(-c4cc(OC)c(OC)cc4NC(=O)c4cc(=O)c5ccccc5o4)n3)cc1)CC2
inactive: cytotoxicity call (HSkMC) | cytotoxicity call (HepG2) | growth inhibition call (S. aureus RN4220)

COCC(=O)Nc1ccc2c(c1)C(=O)N(C)C[C@H](OC)[C@H](C)CN(C(=O)Cc1ccccn1)[C@H](C)CO2
inactive: cytotoxicity call (HSkMC) | cytotoxicity call (HepG2) | growth inhibition call (S. aureus RN4220)

CO[C@@H]1CN(C)C(=O)c2ccc(NC(=O)Nc3cccc(F)c3)cc2OC[C@H](C)N(C(=O)Nc2c(C)noc2C)C[C@@H]1C
inactive: cytotoxicity call (HSkMC) | cytotoxicity call (HepG2) | growth inhibition call (S. aureus RN4220)

O=C(C[C@@H]1CC[C@@H]2[C@H](COC[C@@H](O)CN2S(=O)(=O)c2ccccc2)O1)NCCN1CCCC1
inactive: cytotoxicity call (HSkMC) | cytotoxicity call (HepG2) | growth inhibition call (S. aureus RN4220)

Cc1cc(O)cc(=O)[nH]1
inactive: cytotoxicity call (HSkMC) | cytotoxicity call (HepG2) | growth inhibition call (S. aureus RN4220)

C[C@@H](NC(=O)C[C@H]1C=C[C@H](NC(=O)CN2CCOCC2)[C@H](CO)O1)c1ccccc1
inactive: cytotoxicity call (HSkMC) | cytotoxicity call (HepG2) | growth inhibition call (S. aureus RN4220)

Cc1ccc(-c2ccc(OC(=O)c3ccccc3F)cc2)cc1
inactive: cytotoxicity call (HSkMC) | cytotoxicity call (HepG2) | growth inhibition call (S. aureus RN4220)

NCc1c[nH]c(=S)n1[C@H]1CCc2c(F)cc(F)cc2C1
inactive: cytotoxicity call (HSkMC) | cytotoxicity call (HepG2) | growth inhibition call (S. aureus RN4220)
